Results: the antibiotic and cytotoxicity screens of Wong et al. (2023)
The other results are listed elsewhere or left out.

How the values were obtained:
HSkMC = human skeletal muscle cells; assay: cytotoxicity call (relative viability < 0.9); settings: 10 µM
HepG2 = assay: cytotoxicity call (relative viability < 0.9); settings: 10 µM
S. aureus RN4220 = assay: growth inhibition call (relative growth <= 0.2); settings: 50 µM

Compound	cytotoxicity call (HSkMC)	cytotoxicity call (HepG2)	growth inhibition call (S. aureus RN4220)
COc1ccc(C#Cc2cnc3c(c2)C(=O)N([C@@H](C)CO)C[C@@H](C)[C@H](CN(C)C(=O)CN(C)C)O3)cc1	inactive	inactive	inactive
COCCOC(=O)N1C(=O)[C@@]2(c3cc(C#CCNC(N)=O)ccc31)[C@H](C(=O)N1CCCCCCC1)[C@H]1C(=O)O[C@H](c3ccccc3)[C@H](c3ccccc3)N1[C@@H]2c1ccc(O)cc1	inactive	inactive	inactive
C[C@@H]1CN([C@@H](C)CO)S(=O)(=O)c2ccc(C#CC(C)(C)O)cc2O[C@@H]1CN(C)Cc1ccncc1	inactive	inactive	inactive
CO[C@H]1CN(C)C(=O)c2ccc(NC(=O)Nc3cccc(Cl)c3)cc2OC[C@H](C)N(C(=O)Nc2c(C)noc2C)C[C@H]1C	inactive	inactive	inactive
CC(=O)N(C)C[C@H]1Oc2cc(C#CCN(C)C)ccc2S(=O)(=O)N([C@H](C)CO)C[C@H]1C	inactive	inactive	inactive
CO[C@@H]1CN(C)C(=O)c2cc(NC(=O)C3CCOCC3)ccc2OC[C@H](C)N(Cc2cccnc2)C[C@H]1C	inactive	inactive	inactive
C[C@@H]1CN([C@H](C)CO)C(=O)c2cc(NC(=O)Nc3ccc(F)cc3)ccc2O[C@@H]1CN(C)S(C)(=O)=O	inactive	inactive	inactive
Cc1ccc(S(=O)(=O)Nc2ccc3c(c2)C(=O)N([C@H](C)CO)C[C@H](C)[C@@H](CN(C)Cc2ccccc2)OCCCC[C@H](C)O3)cc1	inactive	inactive	inactive
C[C@H](CO)N1C[C@H](C)[C@@H](CN(C)Cc2ccc(C(=O)O)cc2)Oc2ncc(Br)cc2C1=O	inactive	inactive	inactive
COCCNC(=O)c1cn(C)nc1OC	inactive	inactive	inactive
Cn1c(=O)c2c(nc(NCCN)n2C)n(C)c1=O	inactive	inactive	inactive
COc1ccc(CN(C)C[C@@H]2Oc3ccc(NC(=O)Cn4cnnn4)cc3C(=O)N([C@@H](C)CO)C[C@H]2C)cc1	inactive	inactive	inactive
COc1ccc(C#Cc2ccc3c(c2)[C@]2(C(=O)N3)[C@H](C(=O)Nc3nc4ccccc4s3)[C@H]3C(=O)O[C@H](c4ccccc4)[C@H](c4ccccc4)N3[C@@H]2c2ccc(O)cc2)cc1	inactive	inactive	inactive
O=C(C[C@@H]1CC[C@H]2[C@@H](COC[C@@H](O)CN2C(=O)c2ccccc2F)O1)N1CCN(c2ccccc2)CC1	inactive	inactive	inactive
Cc1ccc(S(=O)(=O)Nc2ccc3c(c2)CC(=O)N([C@@H](C)CO)C[C@@H](C)[C@H](CN(C)S(=O)(=O)c2cn(C)cn2)O3)cc1	inactive	inactive	inactive
C[C@H]1CN([C@@H](C)CO)C(=O)c2cccc(NC(=O)c3ccc(-c4nccs4)cc3)c2O[C@@H]1CN(C)Cc1ccc(Oc2ccccc2)cc1	inactive	inactive	inactive
O=C(O)CCCCCCCCCCCCC1C=CCC1 (stereo not given)	inactive	inactive	inactive
COc1ccc([C@H]([C@H](Cc2ccccc2)OC(C)=O)N(C/C=C/[C@@H](OC(C)=O)c2ccccc2)[C@@H](Cc2ccccc2)C(OC)OC)cc1	inactive	active	inactive
Cc1cc(C(=O)Nc2cccc3c2O[C@@H](CN(C)C(=O)Nc2c(C)noc2C)[C@@H](C)CN([C@@H](C)CO)C3=O)n(C)n1	inactive	inactive	inactive
C[C@@H]1CN([C@@H](C)CO)C(=O)c2cc(NS(=O)(=O)c3cn(C)cn3)ccc2O[C@H]1CN(C)S(=O)(=O)c1cccs1	inactive	active	inactive
O=c1c(O)c(-c2ccc(O)cc2O)oc2cc(O)cc(O)c12	inactive	inactive	inactive
C[C@@H]1CN([C@@H](C)CO)C(=O)c2cc(NS(=O)(=O)c3cccs3)ccc2O[C@@H](C)CCCCO[C@@H]1CN(C)C(=O)Nc1ccccc1	inactive	inactive	inactive
C[C@@H]1CCCCO[C@@H](CN(C)C(=O)Nc2ccc3c(c2)OCO3)[C@@H](C)CN([C@H](C)CO)C(=O)c2cc(NC(=O)c3ccncc3)ccc2O1	inactive	inactive	inactive
N=C1NCCC(C2NC(=O)C(=CNC(N)=O)NC(=O)C(CNC(=O)CC(N)CCCN)NC(=O)C(CO)NC(=O)C(N)CNC2=O)N1.O=S(=O)(O)O (stereo not given)	inactive	inactive	inactive
COc1ccc(CN(C)C[C@@H]2OCCCC[C@H](C)Oc3ccc(NC(=O)NC(C)C)cc3C(=O)N([C@H](C)CO)C[C@H]2C)cc1	inactive	inactive	inactive
